# Results as given in the supplement of paper PMC8728848.
# The list shows a part of the results.
# B1: BC2LB (Burholderia cenocepacia), B4EH85_BURCJ (protein)
# chain: MGSSHHHHHHSSGENLYFQGHMSQPFTHDDLYALLQLAGNDATAVQANGDQAVLDRMRQFMTAQLVEKLPQYDVFVDIATIPYSFDVGSWQNKVKTDAAGEVVACTVTWAGAPGVLPGAAAKFGVGAVVNYFSKATPH
# Key:
# Test in all cases: glycan array binding signal (z-score within array); higher = stronger binding
# Settings in all cases: glycan notation: IUPAC condensed, linker removed
# [1] = target: GlcNAc(a1-6)Gal(b1-4)GlcNAc
# Outline: (§1)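 The Consortium for Functional Glycomics database supplied 3228 glycan arrays, of which those lacking an available protein sequence were dropped. The binding signal, a within-array Z-score, was averaged across arrays of the same protein sequence and across linkers. Negative scores can be read as non-binding.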
# [2] = target: GlcNAc(b1-2)Gal(b1-3)GalNAc
# Outline: as §1
# [3] = target: GlcNAc(b1-2)Man(a1-3)[GlcNAc(b1-2)Man(a1-6)]Man(b1-4)GlcNAc(b1-4)GlcNAc
# Outline: as §1
# [4] = target: GlcNAc(b1-2)Man(a1-3)[GlcNAc(b1-2)Man(a1-6)]Man(b1-4)GlcNAc(b1-4)[Fuc(a1-6)]GlcNAc
# Outline: as §1
# [5] = target: GlcNAc(b1-2)Man(a1-3)[GlcNAc(b1-4)][GlcNAc(b1-2)Man(a1-6)]Man(b1-4)GlcNAc(b1-4)GlcNAc
# Outline: as §1
# [6] = target: GlcNAc(b1-2)Man(a1-3)[GlcNAc(b1-4)][GlcNAc(b1-2)Man(a1-6)]Man(b1-4)GlcNAc(b1-4)[Fuc(a1-6)]GlcNAc
# Outline: as §1
# [7] = target: GlcNAc(b1-2)[GlcNAc(b1-4)]Man(a1-3)[GlcNAc(b1-2)Man(a1-6)]Man(b1-4)GlcNAc(b1-4)GlcNAc
# Outline: as §1
# [8] = target: GlcNAc(b1-2)[GlcNAc(b1-4)]Man(a1-3)[GlcNAc(b1-4)][GlcNAc(b1-2)Man(a1-6)]Man(b1-4)GlcNAc(b1-4)GlcNAc
# Outline: as §1
# [9] = target: GlcNAc(b1-2)[GlcNAc(b1-4)]Man(a1-3)[GlcNAc(b1-4)][GlcNAc(b1-2)[GlcNAc(b1-6)]Man(a1-6)]Man(b1-4)GlcNAc(b1-4)GlcNAc
# Outline: as §1
# [10] = target: GlcNAc(b1-2)[GlcNAc(b1-4)]Man(a1-3)[GlcNAc(b1-4)][GlcNAc(b1-2)[GlcNAc(b1-6)]Man(a1-6)]Man(b1-4)GlcNAc(b1-4)[Fuc(a1-6)]GlcNAc
# Outline: as §1
# [11] = target: GlcNAc(b1-2)[GlcNAc(b1-6)]Man(a1-6)[GlcNAc(b1-2)Man(a1-3)]Man(b1-4)GlcNAc(b1-4)GlcNAc
# Outline: as §1
# [12] = target: GlcNAc(b1-2)[GlcNAc(b1-6)]Man(a1-6)[GlcNAc(b1-2)Man(a1-3)]Man(b1-4)GlcNAc(b1-4)[Fuc(a1-6)]GlcNAc
# Outline: as §1
# [13] = target: GlcNAc(b1-2)[GlcNAc(b1-6)]Man(a1-6)[GlcNAc(b1-4)][GlcNAc(b1-2)Man(a1-3)]Man(b1-4)GlcNAc(b1-4)GlcNAc
# Outline: as §1
# [14] = target: GlcNAc(b1-3)Fuc
# Outline: as §1
# [15] = target: GlcNAc(b1-3)Gal
# Outline: as §1
# [16] = target: GlcNAc(b1-3)Gal(b1-3)GalNAc
# Outline: as §1
# [17] = target: GlcNAc(b1-3)Gal(b1-4)Glc
# Outline: as §1
# [18] = target: GlcNAc(b1-3)Gal(b1-4)GlcNAc
# Outline: as §1
# [19] = target: GlcNAc(b1-3)Gal(b1-4)GlcNAc(b1-2)Man(a1-3)[GlcNAc(b1-3)Gal(b1-4)GlcNAc(b1-2)Man(a1-6)]Man(b1-4)GlcNAc(b1-4)GlcNAc
# Outline: as §1
# [20] = target: GlcNAc(b1-3)Gal(b1-4)GlcNAc(b1-2)Man(a1-3)[GlcNAc(b1-3)Gal(b1-4)GlcNAc(b1-2)Man(a1-6)]Man(b1-4)GlcNAc(b1-4)[Fuc(a1-6)]GlcNAc
# Outline: as §1
# [21] = target: GlcNAc(b1-3)Gal(b1-4)GlcNAc(b1-2)[GlcNAc(b1-3)Gal(b1-4)GlcNAc(b1-6)]Man(a1-6)[GlcNAc(b1-3)Gal(b1-4)GlcNAc(b1-2)Man(a1-3)]Man(b1-4)GlcNAc(b1-4)GlcNAc
# Outline: as §1
# [22] = target: GlcNAc(b1-3)Gal(b1-4)GlcNAc(b1-3)Gal(b1-4)GlcNAc
# Outline: as §1
# [23] = target: GlcNAc(b1-3)Gal(b1-4)GlcNAc(b1-3)Gal(b1-4)GlcNAc(b1-2)Man(a1-3)[GlcNAc(b1-3)Gal(b1-4)GlcNAc(b1-3)Gal(b1-4)GlcNAc(b1-2)Man(a1-6)]Man(b1-4)GlcNAc(b1-4)GlcNAc
# Outline: as §1
# [24] = target: GlcNAc(b1-3)Gal(b1-4)GlcNAc(b1-3)Gal(b1-4)GlcNAc(b1-2)Man(a1-3)[GlcNAc(b1-3)Gal(b1-4)GlcNAc(b1-3)Gal(b1-4)GlcNAc(b1-2)Man(a1-6)]Man(b1-4)GlcNAc(b1-4)[Fuc(a1-6)]GlcNAc
# Outline: as §1
# [25] = target: GlcNAc(b1-3)Gal(b1-4)GlcNAc(b1-3)Gal(b1-4)GlcNAc(b1-2)[GlcNAc(b1-3)Gal(b1-4)GlcNAc(b1-3)Gal(b1-4)GlcNAc(b1-6)]Man(a1-6)[GlcNAc(b1-3)Gal(b1-4)GlcNAc(b1-3)Gal(b1-4)GlcNAc(b1-2)Man(a1-3)]Man(b1-4)GlcNAc(b1-4)[Fuc(a1-6)]GlcNAc
# Outline: as §1
# [26] = target: GlcNAc(b1-3)Gal(b1-4)GlcNAc(b1-3)Gal(b1-4)GlcNAc(b1-3)Gal(b1-4)GlcNAc(b1-2)Man(a1-3)[GlcNAc(b1-3)Gal(b1-4)GlcNAc(b1-3)Gal(b1-4)GlcNAc(b1-3)Gal(b1-4)GlcNAc(b1-2)Man(a1-6)]Man(b1-4)GlcNAc(b1-4)GlcNAc
# Outline: as §1
# [27] = target: GlcNAc(b1-3)Gal(b1-4)GlcNAc(b1-3)Gal(b1-4)GlcNAc(b1-3)Gal(b1-4)GlcNAc(b1-2)Man(a1-3)[GlcNAc(b1-3)Gal(b1-4)GlcNAc(b1-3)Gal(b1-4)GlcNAc(b1-3)Gal(b1-4)GlcNAc(b1-2)Man(a1-6)]Man(b1-4)GlcNAc(b1-4)[Fuc(a1-6)]GlcNAc
# Outline: as §1
# [28] = target: GlcNAc(b1-3)Gal(b1-4)GlcNAc(b1-3)Gal(b1-4)GlcNAc(b1-3)Gal(b1-4)GlcNAc(b1-2)[GlcNAc(b1-3)Gal(b1-4)GlcNAc(b1-3)Gal(b1-4)GlcNAc(b1-3)Gal(b1-4)GlcNAc(b1-6)]Man(a1-6)[GlcNAc(b1-3)Gal(b1-4)GlcNAc(b1-3)Gal(b1-4)GlcNAc(b1-3)Gal(b1-4)GlcNAc(b1-2)Man(a1-3)]Man(b1-4)GlcNAc(b1-4)[Fuc(a1-6)]GlcNAc
# Outline: as §1
# [29] = target: GlcNAc(b1-3)Gal(b1-4)GlcNAc(b1-3)Gal(b1-4)GlcNAc(b1-3)Gal(b1-4)GlcNAc(b1-3)Gal(b1-4)GlcNAc(b1-2)Man(a1-3)[GlcNAc(b1-3)Gal(b1-4)GlcNAc(b1-3)Gal(b1-4)GlcNAc(b1-3)Gal(b1-4)GlcNAc(b1-3)Gal(b1-4)GlcNAc(b1-2)Man(a1-6)]Man(b1-4)GlcNAc(b1-4)GlcNAc
# Outline: as §1
# [30] = target: GlcNAc(b1-3)Gal(b1-4)GlcNAc(b1-3)Gal(b1-4)GlcNAc(b1-3)Gal(b1-4)GlcNAc(b1-3)Gal(b1-4)GlcNAc(b1-2)Man(a1-3)[GlcNAc(b1-3)Gal(b1-4)GlcNAc(b1-3)Gal(b1-4)GlcNAc(b1-3)Gal(b1-4)GlcNAc(b1-3)Gal(b1-4)GlcNAc(b1-2)Man(a1-6)]Man(b1-4)GlcNAc(b1-4)[Fuc(a1-6)]GlcNAc
# Outline: as §1
# [31] = target: GlcNAc(b1-3)Gal(b1-4)GlcNAc(b1-3)Gal(b1-4)GlcNAc(b1-3)Gal(b1-4)GlcNAc(b1-3)Gal(b1-4)GlcNAc(b1-2)[GlcNAc(b1-3)Gal(b1-4)GlcNAc(b1-3)Gal(b1-4)GlcNAc(b1-3)Gal(b1-4)GlcNAc(b1-3)Gal(b1-4)GlcNAc(b1-6)]Man(a1-6)[GlcNAc(b1-3)Gal(b1-4)GlcNAc(b1-3)Gal(b1-4)GlcNAc(b1-3)Gal(b1-4)GlcNAc(b1-3)Gal(b1-4)GlcNAc(b1-2)Man(a1-3)]Man(b1-4)GlcNAc(b1-4)[Fuc(a1-6)]GlcNAc
# Outline: as §1
# [32] = target: GlcNAc(b1-3)Gal(b1-4)GlcNAc(b1-3)Gal(b1-4)GlcNAc(b1-3)GalNAc
# Outline: as §1
# [33] = target: GlcNAc(b1-3)Gal(b1-4)GlcNAc(b1-3)GalNAc
# Outline: as §1
# [34] = target: GlcNAc(b1-3)Gal(b1-4)GlcNAc(b1-3)[GlcNAc(b1-3)Gal(b1-4)GlcNAc(b1-3)]GalNAc
# Outline: as §1
# [35] = target: GlcNAc(b1-3)Gal(b1-4)GlcNAc(b1-6)[Gal(b1-3)]GalNAc
# Outline: as §1
# [36] = target: GlcNAc(b1-3)Gal(b1-4)GlcNAc(b1-6)[GlcNAc(b1-3)Gal(b1-3)]GalNAc
# Outline: as §1
# [37] = target: GlcNAc(b1-3)Gal(b1-4)GlcNAc(b1-6)[GlcNAc(b1-3)]Gal(b1-4)GlcNAc
# Outline: as §1
# [38] = target: GlcNAc(b1-3)GalNAc
# Outline: as §1
# [39] = target: GlcNAc(b1-3)Man
# Outline: as §1
# [40] = target: GlcNAc(b1-3)[GlcNAc(b1-4)][GlcNAc(b1-6)]GlcNAc
# Outline: as §1
# [41] = target: GlcNAc(b1-3)[GlcNAc(b1-6)]Gal(b1-4)GlcNAc
# Outline: as §1
# [42] = target: GlcNAc(b1-3)[GlcNAc(b1-6)]GalNAc
# Outline: as §1
# [43] = target: GlcNAc(b1-4)Gal(b1-4)GlcNAc
# Outline: as §1
# [44] = target: GlcNAc(b1-4)GlcNAc
# Outline: as §1
# [45] = target: GlcNAc(b1-4)GlcNAc(b1-4)GlcNAc
# Outline: as §1
binder,measurement,setting,value
B1,glycan array binding signal (z-score),[1],-0.123
same,glycan array binding signal (z-score),[2],-0.244
same,glycan array binding signal (z-score),[3],-0.234
same,glycan array binding signal (z-score),[4],-0.301
same,glycan array binding signal (z-score),[5],-0.335
same,glycan array binding signal (z-score),[6],-0.246
same,glycan array binding signal (z-score),[7],-0.229
same,glycan array binding signal (z-score),[8],0.533
same,glycan array binding signal (z-score),[9],-0.172
same,glycan array binding signal (z-score),[10],-0.298
same,glycan array binding signal (z-score),[11],-0.247
same,glycan array binding signal (z-score),[12],-0.233
same,glycan array binding signal (z-score),[13],-0.349
same,glycan array binding signal (z-score),[14],-0.17
same,glycan array binding signal (z-score),[15],-0.363
same,glycan array binding signal (z-score),[16],-0.128
same,glycan array binding signal (z-score),[17],-0.265
same,glycan array binding signal (z-score),[18],-0.202
same,glycan array binding signal (z-score),[19],-0.274
same,glycan array binding signal (z-score),[20],-0.14
same,glycan array binding signal (z-score),[21],0.039
same,glycan array binding signal (z-score),[22],-0.231
same,glycan array binding signal (z-score),[23],-0.198
same,glycan array binding signal (z-score),[24],-0.217
same,glycan array binding signal (z-score),[25],-0.149
same,glycan array binding signal (z-score),[26],-0.195
same,glycan array binding signal (z-score),[27],-0.07
same,glycan array binding signal (z-score),[28],-0.161
same,glycan array binding signal (z-score),[29],-0.193
same,glycan array binding signal (z-score),[30],0.242
same,glycan array binding signal (z-score),[31],-0.171
same,glycan array binding signal (z-score),[32],-0.251
same,glycan array binding signal (z-score),[33],0.025
same,glycan array binding signal (z-score),[34],-0.092
same,glycan array binding signal (z-score),[35],-0.231
same,glycan array binding signal (z-score),[36],0.053
same,glycan array binding signal (z-score),[37],-0.24
same,glycan array binding signal (z-score),[38],0.413
same,glycan array binding signal (z-score),[39],0.118
same,glycan array binding signal (z-score),[40],-0.059
same,glycan array binding signal (z-score),[41],-0.319
same,glycan array binding signal (z-score),[42],-0.255
same,glycan array binding signal (z-score),[43],-0.284
same,glycan array binding signal (z-score),[44],-0.001
same,glycan array binding signal (z-score),[45],-0.065
